From patent publication US20250101076A1
For part of its entries the source gives two or more results. Only these are listed. The source may hold further records. Values that stand side by side seem to repeat one measurement on other runs, samples or individuals.

Biological target: extracellular domain of the growth hormone receptor (human) (UniProt P10912)
Assay: competition ELISA, plate coated with GHR extracellular domain, inhibition of biotin-hGH binding; affinity relative to hGH

Chain of UniProt P10912 (P10912 19-264): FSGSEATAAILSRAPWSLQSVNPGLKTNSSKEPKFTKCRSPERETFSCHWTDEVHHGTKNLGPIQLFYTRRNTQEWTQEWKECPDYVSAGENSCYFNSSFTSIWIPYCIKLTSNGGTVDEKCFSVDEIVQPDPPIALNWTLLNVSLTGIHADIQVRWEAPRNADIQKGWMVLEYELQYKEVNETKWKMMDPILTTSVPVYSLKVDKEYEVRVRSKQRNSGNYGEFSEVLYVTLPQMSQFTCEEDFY

IC50 hGH / IC50 GHRA: 0.026 and 2.6% [one cell]
Substance: pegvisomant (ligand)
